Results published in the supplement of paper PMC10600219.
Where a name gives a salt, the structure may show the parent alone. Whole data set: some 2,800 compounds, median “cell viability relative to vehicle” near 0.98, cut for the lowest 2% near 0.45. The list shows a part of the results.

What follows are compounds tested on NCI-H2228 alectinib-DTP (assay: cell viability relative to vehicle (fraction of vehicle); NCI-H2228 is an ALK-positive lung cancer line and DTP means drug-tolerant persister; higher = less growth inhibition). Details: 100 nM; treatment time 6 days.
Summary of the method: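 Values give cell viability as a fraction of vehicle-treated cells. Parental and drug-tolerant persister NCI-H2228 cells (persisters made with 1000 nM of a targeted drug for 13 days) were exposed in 384-well plates to the 3114-agent TargetMol anti-cancer compound library at 100 nM, with DMSO as vehicle. ATP was then read after 6 days by the CellTiter-Glo 3D Cell Viability Assay.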
`C[C@H](N[C@@H](CCc1ccccc1)C(=O)O)C(=O)N1CCC[C@H]1C(=O)O` [Enalaprilat Dihydrate] was tested, and the cell viability was 1.12. `NC(=O)N1CCC(CC(=O)N2CCC([C@H]3c4ncc(Br)cc4CCc4cc(Cl)cc(Br)c43)CC2)CC1` [Lonafarnib] showed a cell viability of 0.795. Work on `CC1(C)CC[C@]2(C(=O)O)CC[C@]3(C)C(=CC[C@@H]4[C@@]5(C)CCC(=O)C(C)(C)[C@@H]5CC[C@]43C)[C@@H]2C1` [Oleanonic Acid] yielded a cell viability of 1.02. `CNC(=O)c1cc(Oc2ccc(NC(=O)c3cccc(C(F)(F)F)c3)cc2)ccn1` gave a cell viability of 1.13. `CS(=O)(=O)c1ccc(C(=O)Nc2ccc(Cl)c(-c3ccccn3)c2)c(Cl)c1` [Vismodegib] gave a cell viability of 0.988. `COc1ccc(CC(C)NCC(O)c2ccc(O)c(NC=O)c2)cc1` (configuration not stated) [Formoterol] gave a cell viability of 0.931. `COc1ccc(CC(C)NCC(O)c2ccc(O)c(NC=O)c2)cc1` (configuration not stated) [Formoterol Hemifumarate] was tested, and the cell viability was 0.876. With `CC(C)C[C@H](NC(=O)[C@H](Cc1ccccc1)NC(=O)c1cnccn1)B(O)O` [Bortezomib] the cell viability was 0.145. `Cc1ccc2c(c1)C(=O)C1(O)CCN(c3ccccc3)C1=N2` (single isomer, unassigned; (-)) [(-)-Blebbistatin] was tested, and the cell viability was 0.955. With `CC(CN1CC(=O)N(CN2CCOCC2)C(=O)C1)N1CC(=O)N(CN2CCOCC2)C(=O)C1` (configuration not stated) [Probimane] the cell viability was 0.977. For `COc1ccc(-c2coc3cc(O)ccc3c2=O)cc1` [Formononetin], the cell viability was 1.12. For `CN1CCN(S(=O)(=O)c2ccc(-c3cnc(N)c(C(=O)Nc4cccnc4)n3)cc2)CC1`, the cell viability was 1.18. `O=C(NOCC1CC1)c1ccc(F)c(F)c1Nc1ccc(I)cc1Cl` showed a cell viability of 0.864. Work on `Nc1nc(F)nc2c1ncn2[C@@H]1O[C@H](COP(=O)(O)O)[C@@H](O)[C@@H]1O` [Fludarabine Phosphate] yielded a cell viability of 0.997. For `COc1ccc(S(=O)(=O)/N=C2\C=CC=C\C2=C/C=C2C=CN(O)C=C2)cc1`, the cell viability was 0.935. Compound `CCOC(=O)N1CCC(=C2c3ccc(Cl)cc3CCc3cccnc32)CC1` [Loratadine] has a cell viability of 1. `NC(=O)c1ccccc1O` [Salicylamide] showed a cell viability of 1.16. Work on `CC1(C)CCC(c2ccc(Cl)cc2)=C(CN2CCN(c3ccc(C(=O)NS(=O)(=O)c4ccc(N[C@H](CCN5CCOCC5)CSc5ccccc5)c(S(=O)(=O)C(F)(F)F)c4)cc3)CC2)C1` [Navitoclax] yielded a cell viability of 1.08. For `CCCCCN(C)CCC(O)(P(=O)(O)O)P(=O)(O)O` [Ibandronate sodium], the cell viability was 1.01. For `CCS(=O)(=O)Nc1ccc(Oc2ccc(F)cc2F)c(-c2cn(C)c(=O)c3[nH]ccc23)c1` [Mivebresib], the cell viability was 0.736. `O=c1ccc2cc3ccoc3cc2o1` [Psoralen] gave a cell viability of 1.05. `Oc1ccc2c(c1)OC[C@]1(O)Cc3cc(O)c(O)cc3[C@H]21` [Brazilin] was tested, and the cell viability was 1.11. `C=C(C)[C@@H]1CC[C@]2(C(=O)O)CC[C@]3(C)[C@H](CC[C@@H]4[C@@]5(C)CC[C@H](O)C(C)(C)[C@@H]5CC[C@]43C)[C@@H]12` [Betulinic acid] gave a cell viability of 0.953. In the case of `CCOc1cc(N2CCC(O)CC2)ccc1Nc1ncc2c(n1)N(C1CCCC1)CCC(=O)N2C`, the cell viability is reported as 0.978. Compound `C[C@@H](O)[C@H]1C(=O)N2C(C(=O)O)=C(SCCNC=N)C[C@H]12` [Imipenem] has a cell viability of 0.956. Work on `CC(C)NC(=O)COc1cccc(-c2nc(Nc3ccc4[nH]ncc4c3)c3ccccc3n2)c1` yielded a cell viability of 0.923. In the case of `CC(C)OC(=O)C(C(=O)OC(C)C)=C1SC=CS1` [Malotilate], the cell viability is reported as 0.884. `CC1=C(C(=O)Nc2ccc3[nH]ncc3c2)C(c2ccc(F)c(C(=O)NCc3ccccn3)c2)NC(=O)N1` (configuration not stated) gave a cell viability of 1. `CCN(CC)CCCC(C)Nc1ccnc2cc(Cl)ccc12` (configuration not stated) [Chloroquine diphosphate] gave a cell viability of 1.11. In the case of `Cn1cc(-c2cnn3c(N)c(Br)c([C@H]4CCCNC4)nc23)cn1`, the cell viability is reported as 0.907. Work on `CCNC(=O)[C@H]1O[C@@H](n2cnc3c(N)nc(NCCc4ccc(CCC(=O)O)cc4)nc32)[C@H](O)[C@@H]1O` yielded a cell viability of 1. `CC(C)=CCC[C@](C)(O)[C@H]1CC[C@]2(C)[C@@H]1[C@H](O)C[C@@H]1[C@@]3(C)CC[C@H](O[C@@H]4O[C@H](CO)[C@@H](O)[C@H](O)[C@H]4O[C@@H]4O[C@H](CO)[C@@H](O)[C@H](O)[C@H]4O)C(C)(C)[C@@H]3CC[C@]12C` [Ginsenoside Rg3] was tested, and the cell viability was 0.945. With `O=C(COc1cccc2c(=O)[nH]ccc12)c1ccccc1` the cell viability was 0.996. Compound `CC(C)c1nc(N(C)S(C)(=O)=O)nc(-c2ccc(F)cc2)c1/C=C/[C@@H](O)C[C@@H](O)CC(=O)O` [Rosuvastatin] has a cell viability of 0.801. `CC(=O)c1ccc(NC2=C(Cl)C(=O)c3ccccc3C2=O)cc1` gave a cell viability of 0.908. `Nc1ccc(S(=O)(=O)NC(=O)c2ccccc2)cc1` [Sulfabenzamide] showed a cell viability of 0.915. `C[C@@H](O)[C@H]1C(=O)N2C(C(=O)O)=C(S[C@@H]3CN[C@H](C(=O)Nc4cccc(C(=O)O)c4)C3)[C@H](C)[C@H]12` [Ertapenem sodium] gave a cell viability of 0.975. For `COc1ccc([C@@H]2OC[C@H]3[C@@H]2CO[C@@H]3c2ccc(O[C@@H]3O[C@H](CO)[C@@H](O)[C@H](O)[C@H]3O)c(OC)c2)cc1OC` [Forsythin], the cell viability was 0.913. For `N#C/C(=C\c1ccc(O)c(O)c1)C(=O)Nc1ccccc1`, the cell viability was 0.971. In the case of `C=CC(C)(O)CCC=C(C)CCC=C(C)C` (mixture of isomers) [nerolidol], the cell viability is reported as 1.07. Work on `C/C(=C1/C(=O)Nc2ccc(NC(N)=O)cc21)c1ccc[nH]1` yielded a cell viability of 1.02. `O=C1NC(=O)/C(=C/c2ccc3nccc(-c4ccncc4)c3c2)S1` showed a cell viability of 0.921. `O=C1NC(=O)C(c2ccccc2[N+](=O)[O-])=C1Nc1ccc(O)c(Cl)c1` showed a cell viability of 0.909. Work on `COCCOc1nc(-c2ccc(Cl)c(Cl)c2)n(-c2ccc(NC(=O)CCl)cc2)n1` [MI 2 (MALT1 inhibitor)] yielded a cell viability of 1.14. `CC(C)[C@H](NC(=O)CCCCCN1C(=O)C=CC1=O)C(=O)N[C@@H](CCCNC(N)=O)C(=O)Nc1ccc(COC(=O)Oc2ccc([N+](=O)[O-])cc2)cc1` was tested, and the cell viability was 0.826. In the case of `CC(C(=O)O)c1cccc(Oc2ccccc2)c1` (configuration not stated) [Fenoprofen calcium dihydrate], the cell viability is reported as 1. In the case of `CCn1cc(C(=O)O)c(=O)c2cc(F)c(N3CCNCC3)nc21` [Enoxacin], the cell viability is reported as 0.992. `CCn1cc(C(=O)O)c(=O)c2cc(F)c(N3CCNCC3)nc21` [Enoxacin Sesquihydrate] showed a cell viability of 1.12. In the case of `CCCCCCCCC(=O)N[C@H](CN1CCCC1)[C@H](O)c1ccc2c(c1)OCCO2`, the cell viability is reported as 1.25. In the case of `CC(=O)OCC(=O)NCCCOc1cccc(CN2CCCCC2)c1` [Roxatidine Acetate hydrochloride], the cell viability is reported as 1.05. `OC[C@@H](O)[C@@H](O)[C@H](O)[C@H](O)CO` [D-Mannitol] gave a cell viability of 1.16. `COc1cc2c(c(OC)c1OC)-c1c(cc3c(c1OC)OCO3)C[C@H](C)[C@](C)(O)C2` [Gomisin A] showed a cell viability of 1.07. `CONC(=O)c1ccccc1Nc1cc(Nc2cc(C)nn2C(C)C)ncc1Cl` was tested, and the cell viability was 0.889. `O=C(COc1c(Cl)cc(Cl)cc1Cl)N/N=C/c1ccc[nH]1` showed a cell viability of 0.956. `CC(=Cc1ccc(C(=O)O)cc1)c1ccc2c(c1)C(C)(C)CCC2(C)C` was tested, and the cell viability was 0.884. Work on `COc1cc(Br)c(Nc2nc(-c3c(C)nc4ncccn34)cs2)c(Br)c1` yielded a cell viability of 0.992. In the case of `O=C(O)CCCCCCCC(=O)O` [Azelaic acid], the cell viability is reported as 0.938. `FC(F)(F)C(Cl)Br` (configuration not stated) [Anestan] gave a cell viability of 1.04. For `Cc1ccc(C(=O)c2ccc(CC(=O)O)n2C)cc1` [Tolmetin], the cell viability was 1.05. Work on `COC(=O)Nc1nc2cc(C(=O)c3cccs3)ccc2[nH]1` [Nocodazole] yielded a cell viability of 0.557. In the case of `CC(=O)OCC(=O)[C@@]1(O)CC[C@H]2[C@@H]3CCC4=CC(=O)C=C[C@]4(C)[C@@]3(Cl)[C@@H](Cl)C[C@@]21C` [Dichlorisone Acetate], the cell viability is reported as 0.731. In the case of `CC(C)Oc1ccc(-c2c[nH]cc2CN(C)CCN)cc1`, the cell viability is reported as 0.835. With `CCN[C@H]1CN(CCCOC)S(=O)(=O)c2sc(S(N)(=O)=O)cc21` [Brinzolamide] the cell viability was 1.13. `CNS(=O)(=O)c1ccccc1Nc1nc(Nc2ccc(N3CCN(C)CC3)cc2OC)ncc1Cl` [ALK inhibitor 2] showed a cell viability of 1. `CC(C)c1c(C(=O)Nc2ccccc2)c(-c2ccccc2)c(-c2ccc(F)cc2)n1CC[C@@H](O)C[C@@H](O)CC(=O)O` [Atorvastatin Calcium] showed a cell viability of 1. Compound `CC(C)(C)c1cnc(CSc2cnc(NC(=O)C3CCNCC3)s2)o1` has a cell viability of 0.733. For `Nc1[nH]cnc2ncnc1-2` [Adenine hydrochloride], the cell viability was 1.01. `N=C1CCCN1Cc1[nH]c(=O)[nH]c(=O)c1Cl` [Tipiracil hydrochloride] was tested, and the cell viability was 1. For `NC(=O)NCCC(=O)O` [3-Ureidopropionic acid], the cell viability was 0.979. For `C[C@@H]1Cc2c([nH]c3ccccc23)[C@@H](c2c(F)cc(/C=C/C(=O)O)cc2F)N1CC(C)(C)F`, the cell viability was 0.962. Compound `CC(=O)Nc1cccc(-n2c(=O)n(C3CC3)c(=O)c3c(Nc4ccc(I)cc4F)n(C)c(=O)c(C)c32)c1` [Trametinib] has a cell viability of 0.6. Compound `OC(Cn1cncn1)(Cn1cncn1)c1ccc(F)cc1F` [Fluconazole] has a cell viability of 1.1. `NCCc1c[nH]cn1` [Histamine 2HCl] was tested, and the cell viability was 1.05. For `NCCc1c[nH]cn1` [Histamine], the cell viability was 0.98. In the case of `Cc1ccc(-c2csc3ncnc(SCCC(=O)O)c23)cc1`, the cell viability is reported as 0.869. Compound `CC1(C)CC[C@]2(C(=O)O)CC[C@]3(C)C(=CC[C@@H]4[C@@]5(C)C[C@@H](O)[C@H](O)C(C)(C)[C@@H]5CC[C@]43C)[C@@H]2C1` [Maslinic acid] has a cell viability of 0.962. With `Cc1cn[nH]c1` [4-Methylpyrazole] the cell viability was 1.12.
